# Test results: the supplement of paper PMC8728848
# This is one part of the list.
# How the values were obtained:
# Assay in all cases: glycan array binding signal (z-score within array); higher = stronger binding
# Conditions in all cases: glycan notation: IUPAC condensed, linker removed; mutation: Y228W
# [1] = molecular target: Neu5Ac(a2-6)Gal(b1-4)GlcNAc(b1-2)Man(a1-3)[Man(a1-6)]Man(b1-4)GlcNAc(b1-4)GlcNAc
# How it was run: (§1)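 The Consortium for Functional Glycomics database supplied 3228 glycan arrays, of which those lacking an available protein sequence were dropped. The binding signal, a within-array Z-score, was averaged across arrays of the same protein sequence and across linkers. Negative scores can be read as non-binding.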
# [2] = molecular target: Neu5Ac(a2-6)Gal(b1-4)GlcNAc(b1-2)Man(a1-3)[Neu5Ac(a2-3)Gal(b1-4)GlcNAc(b1-2)Man(a1-6)]Man(b1-4)GlcNAc(b1-4)GlcNAc
# How it was run: as §1
# [3] = molecular target: Neu5Ac(a2-6)Gal(b1-4)GlcNAc(b1-2)Man(a1-3)[Neu5Ac(a2-6)Gal(b1-4)GlcNAc(b1-2)Man(a1-6)]Man(b1-4)GlcNAc(b1-4)GlcNAc
# How it was run: as §1
# [4] = molecular target: Neu5Ac(a2-6)Gal(b1-4)GlcNAc(b1-2)Man(a1-3)[Neu5Ac(a2-6)Gal(b1-4)GlcNAc(b1-2)Man(a1-6)]Man(b1-4)GlcNAc(b1-4)[Fuc(a1-6)]GlcNAc
# How it was run: as §1
# [5] = molecular target: Neu5Ac(a2-6)Gal(b1-4)GlcNAc(b1-2)Man(a1-6)Man(b1-4)GlcNAc(b1-4)GlcNAc
# How it was run: as §1
# [6] = molecular target: Neu5Ac(a2-6)Gal(b1-4)GlcNAc(b1-2)Man(a1-6)[Gal(b1-4)GlcNAc(b1-2)Man(a1-3)]Man(b1-4)GlcNAc(b1-4)GlcNAc
# How it was run: as §1
# [7] = molecular target: Neu5Ac(a2-6)Gal(b1-4)GlcNAc(b1-2)Man(a1-6)[GlcNAc(b1-2)Man(a1-3)]Man(b1-4)GlcNAc(b1-4)GlcNAc
# How it was run: as §1
# [8] = molecular target: Neu5Ac(a2-6)Gal(b1-4)GlcNAc(b1-2)Man(a1-6)[Man(a1-3)]Man(b1-4)GlcNAc(b1-4)GlcNAc
# How it was run: as §1
# [9] = molecular target: Neu5Ac(a2-6)Gal(b1-4)GlcNAc(b1-2)[Neu5Ac(a2-6)Gal(b1-4)GlcNAc(b1-4)]Man(a1-3)[GlcNAc(b1-4)][Neu5Ac(a2-6)Gal(b1-4)GlcNAc(b1-2)[Neu5Ac(a2-6)Gal(b1-4)GlcNAc(b1-6)]Man(a1-6)]Man(b1-4)GlcNAc(b1-4)GlcNAc
# How it was run: as §1
# [10] = molecular target: Neu5Ac(a2-6)Gal(b1-4)GlcNAc(b1-2)[Neu5Ac(a2-6)Gal(b1-4)GlcNAc(b1-4)]Man(a1-3)[GlcNAc(b1-4)][Neu5Ac(a2-6)Gal(b1-4)GlcNAc(b1-4)Man(a1-6)]Man(b1-4)GlcNAc(b1-4)GlcNAc
# How it was run: as §1
# [11] = molecular target: Neu5Ac(a2-6)Gal(b1-4)GlcNAc(b1-2)[Neu5Ac(a2-6)Gal(b1-4)GlcNAc(b1-6)]Man(a1-6)[Neu5Ac(a2-6)Gal(b1-4)GlcNAc(b1-2)Man(a1-3)][GlcNAc(b1-4)]Man(b1-4)GlcNAc(b1-4)GlcNAc
# How it was run: as §1
# [12] = molecular target: Neu5Ac(a2-6)Gal(b1-4)GlcNAc(b1-3)Gal(b1-3)GlcNAc
# How it was run: as §1
# [13] = molecular target: Neu5Ac(a2-6)Gal(b1-4)GlcNAc(b1-3)Gal(b1-4)GlcNAc
# How it was run: as §1
# [14] = molecular target: Neu5Ac(a2-6)Gal(b1-4)GlcNAc(b1-3)Gal(b1-4)GlcNAc(b1-2)Man(a1-3)[Neu5Ac(a2-6)Gal(b1-4)GlcNAc(b1-3)Gal(b1-4)GlcNAc(b1-2)Man(a1-6)]GalNAc
# How it was run: as §1
# [15] = molecular target: Neu5Ac(a2-6)Gal(b1-4)GlcNAc(b1-3)Gal(b1-4)GlcNAc(b1-3)Gal(b1-4)GlcNAc
# How it was run: as §1
# [16] = molecular target: Neu5Ac(a2-6)Gal(b1-4)GlcNAc(b1-3)Gal(b1-4)GlcNAc(b1-3)Gal(b1-4)GlcNAc(b1-2)Man(a1-3)[Neu5Ac(a2-6)Gal(b1-4)GlcNAc(b1-3)Gal(b1-4)GlcNAc(b1-3)Gal(b1-4)GlcNAc(b1-2)Man(a1-6)]GalNAc
# How it was run: as §1
# [17] = molecular target: Neu5Ac(a2-6)Gal(b1-4)GlcNAc(b1-3)Gal(b1-4)GlcNAc(b1-3)GalNAc
# How it was run: as §1
# [18] = molecular target: Neu5Ac(a2-6)Gal(b1-4)GlcNAc(b1-3)Gal(b1-4)GlcNAc(b1-3)[Neu5Ac(a2-6)Gal(b1-4)GlcNAc(b1-3)Gal(b1-4)GlcNAc(b1-6)]GalNAc
# How it was run: as §1
# [19] = molecular target: Neu5Ac(a2-6)Gal(b1-4)GlcNAc(b1-3)Gal(b1-4)GlcNAc(b1-6)[Gal(b1-3)]GalNAc
# How it was run: as §1
# [20] = molecular target: Neu5Ac(a2-6)Gal(b1-4)GlcNAc(b1-3)Gal(b1-4)[Fuc(a1-3)]GlcNAc(b1-3)Gal(b1-4)[Fuc(a1-3)]GlcNAc
# How it was run: as §1
# [21] = molecular target: Neu5Ac(a2-6)Gal(b1-4)GlcNAc(b1-3)GalNAc
# How it was run: as §1
# [22] = molecular target: Neu5Ac(a2-6)Gal(b1-4)GlcNAc(b1-3)[Neu5Ac(a2-6)Gal(b1-4)GlcNAc(b1-6)]GalNAc
# How it was run: as §1
# [23] = molecular target: Neu5Ac(a2-6)Gal(b1-4)GlcNAc(b1-6)GalNAc
# How it was run: as §1
# [24] = molecular target: Neu5Ac(a2-6)Gal(b1-4)GlcNAc(b1-6)[Gal(b1-3)GlcNAc(b1-3)]Gal(b1-4)Glc
# How it was run: as §1
# [25] = molecular target: Neu5Ac(a2-6)Gal(b1-4)GlcNAc(b1-6)[Gal(b1-3)]GalNAc
# How it was run: as §1
# [26] = molecular target: Neu5Ac(a2-6)Gal(b1-4)GlcNAc6S
# How it was run: as §1
# [27] = molecular target: Neu5Ac(a2-6)GalNAc
# How it was run: as §1
# [28] = molecular target: Neu5Ac(a2-6)GalNAc(b1-4)GlcNAc
# How it was run: as §1
# [29] = molecular target: Neu5Ac(a2-6)GalNAc(b1-4)GlcNAc6S
# How it was run: as §1
# [30] = molecular target: Neu5Ac(a2-6)GlcNAc(b1-4)GlcNAc
# How it was run: as §1
# [31] = molecular target: Neu5Ac(a2-6)GlcNAc(b1-4)GlcNAc(b1-4)GlcNAc
# How it was run: as §1
binder,measurement,setting,value
"Epa1-NP-mutant-Y228W (Candida glabrata), Q6VBJ0 (protein) MILNPALFLNKCVCIYTTLILLLLTNGGYATSSNDISLASKDPTTFPLGCSPDITTPKKGLSMELYSYDFRKKGSYPCWDAAYLDPNYPRTGYKSHRLLAKVDGVTGNINFYYHATKGCTPQLGHLPASYNYPKPLTMTNFTMLLYGYFRPKVTGFHTFTISADDLLFVNFGAGNAFDCCRRDSSADHFGNYQAYAIWGSKTAKDELTVHLDAGVYYPIRLFYNNREWDGALSFTFKTESNENTVSDFSEYFFSLDDTEEGCPGLISYDSSCASVKTSKIIGIDYHTETPNENLVPITKTIYHLGIPCTGTTTTPLCGSGFYDPLANKCVTINTSSTSSVTKTTSHTTSKEVSFHSSISSQKTLIPKSIPSPYGPIKSQSIPTEMETSSEISSSEYAFSDVISTPSHSPYTKKHSSLNSSSYTSTVIHSLTSYSISQGIFSTSLSEQNITSKSSTDKFSTATSMSNNITQSSIIISQFSTNNENYTTTSMHTSSDKISTETLNNSISTTTSILFSNSSTILKNNTTIISSDKDTHYHPVNPTIVCSTNKTEIICASITQPSISNSNNHWSSSVLKFNSTTVRSTLPSSAGSNETSINVPFSSSTESNTSTSSTSTSNSKMVRSTLPSSAGSNETSISVPFSSSTESNTSTSSTSTSNSKMVRSTLPSSAGSNETSINVPFSSSTESNTSTSSTSTSNSKTVRSTPFSSAGIIMTSLSQRNNKSASSYASSNSKCYNTADSCRKVHSTPSYLLTSSYTSEGVDYDCSLVSTKLKINDTNCVNNKHTTKSCLKTSVTTTIPTLEIKTARKSSSNTIGLHSYPTSSPNKSISSAPIIGYISSFKTIKTASPSYQTSDLTTITTITSLNNPGSTAVENTHESNDKSRKTSSNDISSKHSVIKETKDAVESSNKSHQTNTLKCSSIIIASSSHNSYESLGGTTLTLTLSKVYSPQNNDTLPFLEISEVNPSRTVLPESSKMMQYLTSTEERNKTARNTIATNIVSISTFHFEGEGNAIRMGYTQLLLMLIGIIVMNIGT",glycan array binding signal (z-score),[1],0.235
same,glycan array binding signal (z-score),[2],-0.168
same,glycan array binding signal (z-score),[3],-0.111
same,glycan array binding signal (z-score),[4],-0.238
same,glycan array binding signal (z-score),[5],-0.196
same,glycan array binding signal (z-score),[6],-0.14
same,glycan array binding signal (z-score),[7],-0.279
same,glycan array binding signal (z-score),[8],-0.244
same,glycan array binding signal (z-score),[9],-0.298
same,glycan array binding signal (z-score),[10],-0.028
same,glycan array binding signal (z-score),[11],0.12
same,glycan array binding signal (z-score),[12],-0.123
same,glycan array binding signal (z-score),[13],-0.311
same,glycan array binding signal (z-score),[14],0.042
same,glycan array binding signal (z-score),[15],-0.116
same,glycan array binding signal (z-score),[16],0.26
same,glycan array binding signal (z-score),[17],-0.181
same,glycan array binding signal (z-score),[18],-0.101
same,glycan array binding signal (z-score),[19],-0.114
same,glycan array binding signal (z-score),[20],-0.074
same,glycan array binding signal (z-score),[21],-0.194
same,glycan array binding signal (z-score),[22],-0.269
same,glycan array binding signal (z-score),[23],0.104
same,glycan array binding signal (z-score),[24],0.054
same,glycan array binding signal (z-score),[25],-0.013
same,glycan array binding signal (z-score),[26],-0.214
same,glycan array binding signal (z-score),[27],-0.281
same,glycan array binding signal (z-score),[28],-0.458
same,glycan array binding signal (z-score),[29],-0.172
same,glycan array binding signal (z-score),[30],-0.241
same,glycan array binding signal (z-score),[31],-0.208
